Measurements published in US20090324515A1, “ANTIMICROBIAL FLAVOURING COMPOSITION” (priority 2006, published 2009).

System: two or more strains selected from Fusobacterium nucleatum, Fusobacterium sp., Porphyromonas gingivalis, Prevotella intermedia, Klebsiella pneumoniae …
Assay: MIC test against oral bacterial strains (general protocol)
Settings: desired = MIC of 1000 or less (parts per million) against two or more of the listed strains

| Compound | MIC characteristics required by the present invention |
| --- | --- |
| CC1CCC(C(C)C)C(OCC(O)CO)C1 (stereo not shown) | desired MIC characteristics |
| CC1=CCC(CCC(C)C(C)O)C1(C)C (single isomer, unassigned; (+)) [sandalore, (+)-3-methyl-5-(2,2,3-trimethyl-3-cyclopenten-1-yl)-2-pentanol] | desired MIC characteristics |
| CCCCC(C)C(=O)O (stereo not shown) [2-Methylhexanoic acid, 2-methylhexanoic acid] | desired MIC characteristics |
| Cc1ccc(O)cc1C [3,4-dimethylphenol] | desired MIC characteristics |
| CCCCCCCCC=CCC=O [3-dodecenal] | desired MIC characteristics |
| CC(=O)C1=C(C)[C@@H]2C[C@@]3(C1)[C@H](C)CC[C@H]3C2(C)C [Acetyl cedrene, acetyl cedrene] | desired MIC characteristics |
| CC1=CCC(CCC(C)CO)C1(C)C (stereo not shown) [Brahmanol, 2-methyl-4-(2,2,3-trimethyl-3-cyclopenten-1-yl)-1-butanol] | desired MIC characteristics |
| O=C/C=C/c1ccccc1 [Cinnamic aldehyde, cinnamic aldehyde] | desired MIC characteristics |
| O=C1CCCCCCCCCCCCCC1 [Cyclopenta-decanone, cyclopentadecanone] | desired MIC characteristics |
| COC(=O)c1c(C)cc(O)c(C)c1O [Methylatrarate, methyl-2,4-dihydroxy-3,6-dimethyl-benzoate] | desired MIC characteristics |
| C/C=C/c1ccc(OC)cc1 [anethole, (e)-1-methoxy-4-(1-propenyl)benzene] | desired MIC characteristics |
| CCC(=CCC1CC=C(C)C1(C)C)CO (stereo not shown) [bacdanol, 2-ethyl-4-(2,2,3-trimethyl-3-cyclopenten-1-yl)-2-buten-1-ol] | desired MIC characteristics |
| CC1C(C)(C)C2=C(C(=O)CCC2)C1(C)C (stereo not shown) [cashmerane] | desired MIC characteristics |
| C[C@@H]1CC[C@H]2C(C)(C)[C@H]3C[C@@]12CC[C@@]3(C)O [cedrol] | desired MIC characteristics |
| CC(=O)O[C@]1(C)CC[C@@]23C[C@@H]1C(C)(C)[C@@H]2CC[C@H]3C [cedryl acetate] | desired MIC characteristics |
| O=C1CCCCCCCCCCCCCCO1 [cyclopentadecanolide] | desired MIC characteristics |
| CC(C)=CCC/C(C)=C/CCC(C)CCO (stereo not shown) [dihydrofarnesol] | desired MIC characteristics |
| CCCCCCCCCCCC=O [dodecanal] | desired MIC characteristics |
| O=C1CCCCCCCCCCC(=O)OCCO1 [ethylenedodecanedioate] | desired MIC characteristics |
| O=CCCc1ccccc1 [hydrocinnamic aldehyde] | desired MIC characteristics |

| Compound | MIC characteristics required by the present invention |
| --- | --- |
| C/C=C\c1ccc(O)c(OC)c1 [isoeugenol extra] | desired MIC characteristics |
| CC/C(=C\C[C@H]1CC=C(C)C1(C)C)CO [levosandol] | desired MIC characteristics |
| CC(C=O)Cc1ccc(C(C)(C)C)cc1 (stereo not shown) [lilial 1 g, 3-(4-tert-butylphenyl)-2-methylpropanal] | desired MIC characteristics |
| CCC(O)/C(C)=C/C1(C)CC2C=CC1C2 (stereo not shown) [methyl sandeflor] | desired MIC characteristics |
| CCCCCCCCCC(C)C=O (stereo not shown) [methyl undecanal] | desired MIC characteristics |
| C=CC(C)(O)CCC=C(C)CCC=C(C)C (stereo not shown) [nerolidol, 3,7,11-trimethyl-1,6,10-dodecatrien-3-ol] | desired MIC characteristics |
| CCCCCCCCCO [nonanol] | desired MIC characteristics |
| C=C(C)[C@@H]1CCC2=CC(=O)C[C@@H](C)[C@]2(C)C1 [nootkatone, (+)-(4r)-4,4-a,5,6,7,8-hexahydro-6-isopropenyl-4,4a-dimethyl-2(3h)-naphthalenone] | desired MIC characteristics |
| COc1ccccc1C=CC=O [o-methoxycinnamic aldehyde] | desired MIC characteristics |
| C=C(C)C1CC=C(CO)CC1 (stereo not shown) [perilla alcohol, 1,8-p-menthadien-7-ol] | desired MIC characteristics |
| CC(=O)c1cc2c(cc1C)C(C)(C)C(C)C2(C)C (stereo not shown) [phantolid, 1-(1,1,2,3,3,6-hexamethyl-5-indanyl)-1-ethanone] | desired MIC characteristics |
| O=CCc1ccccc1 [phenylacetaldehyde] | desired MIC characteristics |
| CC1=CCC(C/C=C(\C)CO)C1(C)C (stereo not shown) [santalinol, (e)-2-methyl-4-(2,2,3-trimethyl-3-cyclopenten-1-yl)-2-buten-1-ol] | desired MIC characteristics |
| CCCCCCCC/C=C/C=O [trans-2-undecenal] | desired MIC characteristics |
| CCCCCCCCCCC=O [undecanal] | desired MIC characteristics |
| cyclohexadecen-1-one | desired MIC characteristics |
| decen-1-ol | desired MIC characteristics |
| isocamphylcyclohexanol | desired MIC characteristics |
| methyl decanal | desired MIC characteristics |
| undecen-1-ol | desired MIC characteristics |
